According to a collection of fitness landscapes (doi:10.1016/j.celrep.2020.107928):
In all, about 81,000 sequences were measured (“one-hybrid fitness for binding NBS DNA”: median about -0.1, highest 2% from about 0.36 on). The list shows a part of the results.

B1: Caulobacter ParB omega fusion; a variant is named by its letters at X, in order, B8GW30 (parent)
chain: MESVVVGEPGMSEGRRGLGRGLSALLGEVDAAPAQAPGEQLGGSREAPIEILQRNPDQPRRTFREEDLEDLSNSIREKGVLQPILVRPSPDTAGEYQIVAGERAWRAAQRAGLKTVPIMVRELDDLAVLEIGIIENVQRADLNVLEEALSYKVLMEKFERTQENIAQTIGKSXSHVANXMRLLXLPDEVQSYLVSGELTAXHARAIAAAADPVALAKQIIEGGLSVRETEALARKAPNLSAGKSKGGRPPRVKDTDTQALESDLSSVLGLDVSIDHRGSTGTLTITYATLEQLDDLCNRLTRGI

Variants of: B1
Test: one-hybrid fitness for binding NBS DNA (the Noc-binding site; scaled: cognate 1, non-cognate 0); higher = stronger binding
Details: with NBS DNA site
Method in brief: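 The reporter was HIS3, with the binding site 19 bp from the promoter, in E. coli USO used for bacterial one-hybrid selection of Caulobacter ParB libraries with four specificity codons randomised. Growth was on M9 lacking histidine, with 0.1 mM IPTG and 5 mM 3-AT, for 48 hours at 37°C. Illumina sequencing covered plasmids before and after selection; three replicate libraries were pooled and variants with under 10 reads dropped. A fitness score is the log change in variant-to-wild-type read ratio, rescaled to the cognate and non-cognate references.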

Variant	one-hybrid fitness for binding NBS DNA
TLCT	≤ 0.2
KSAT	≤ 0.2
EDWR	≤ 0.2
LRHW	≤ 0.2
NAAR	≤ 0.2
WRNT	≤ 0.2
QDHG	≤ 0.2
SDTS	≤ 0.2
MEMT	≤ 0.2
PHTY	≤ 0.2
RDEG	≤ 0.2
CHSD	≤ 0.2
VWSG	≤ 0.2
FALC	≤ 0.2
WPTG	≤ 0.2
QAFC	≤ 0.2
YVQR	≤ 0.2
HGCL	≤ 0.2
TEFW	≤ 0.2
IGCS	≤ 0.2
WLSE	≤ 0.2
VRTG	≤ 0.2
GWGP	≤ 0.2
WREG	≤ 0.2
VFYG	≤ 0.2

Variant	one-hybrid fitness for binding NBS DNA
WCLT	≤ 0.2
WRSR	≤ 0.2
HDKL	≤ 0.2
SKGC	≤ 0.2
HTSS	≤ 0.2
PHCR	≤ 0.2
MECW	≤ 0.2
WKHC	≤ 0.2
TCSI	≤ 0.2
AEGK	≤ 0.2
QIQY	≤ 0.2
RSVF	≤ 0.2
EERR	≤ 0.2
IFKR	≤ 0.2
QQVS	0.33
SEPG	≤ 0.2
CSMV	≤ 0.2
RTEN	≤ 0.2
ANDC	≤ 0.2
WGCG	≤ 0.2
LYDV	≤ 0.2
PHAQ	≤ 0.2
HVPA	≤ 0.2
RDSG	≤ 0.2
YGRN	≤ 0.2

Variant	one-hybrid fitness for binding NBS DNA
SFMS	≤ 0.2
WEST	≤ 0.2
SRLK	≤ 0.2
GLVT	≤ 0.2
MAPY	≤ 0.2
TAYV	≤ 0.2
DSCG	≤ 0.2
AMPF	≤ 0.2
QQHW	≤ 0.2
HPKK	≤ 0.2
LEYL	≤ 0.2
KLWC	≤ 0.2
FTYR	≤ 0.2
HSLC	≤ 0.2
SWAK	≤ 0.2
PQYA	≤ 0.2
VFKN	≤ 0.2
EQLT	≤ 0.2
LVQG	≤ 0.2
RCPD	≤ 0.2
APFS	≤ 0.2
FFKG	≤ 0.2
MHYT	≤ 0.2
SLKK	≤ 0.2
EFEE	0.347

Variant	one-hybrid fitness for binding NBS DNA
VNMP	≤ 0.2
PPDL	≤ 0.2
DMPS	≤ 0.2
GVIY	≤ 0.2
LEVV	≤ 0.2
NDDT	≤ 0.2
CAFN	≤ 0.2
KLHF	≤ 0.2
VAAR	≤ 0.2
AAMV	≤ 0.2
LISR	≤ 0.2
NNLT	≤ 0.2
NPFV	≤ 0.2
EFGR	≤ 0.2
MSRA	≤ 0.2
WSST	≤ 0.2
CWDT	≤ 0.2
KDTV	≤ 0.2
HIKG	≤ 0.2
RFPP	≤ 0.2
VVPN	≤ 0.2
TCFR	≤ 0.2
ETTF	≤ 0.2
RHMI	≤ 0.2
HRYW	≤ 0.2

Variant	one-hybrid fitness for binding NBS DNA
YNNV	≤ 0.2
VPAS	≤ 0.2
RHSC	≤ 0.2
NLFM	≤ 0.2
RQNV	≤ 0.2
CQHS	≤ 0.2
CGQT	≤ 0.2
LKCR	≤ 0.2
NLSI	≤ 0.2
KPRS	≤ 0.2
RHPG	≤ 0.2
PYRQ	≤ 0.2
VWMS	≤ 0.2
SQEL	≤ 0.2
QARS	0.644
KGFG	≤ 0.2
YATC	≤ 0.2
LDQS	≤ 0.2
FAAH	≤ 0.2
PQWC	≤ 0.2
RRGV	0.311
PCER	≤ 0.2
WRVQ	≤ 0.2
TPTM	≤ 0.2
NNIC	≤ 0.2

Variant	one-hybrid fitness for binding NBS DNA
QAAH	≤ 0.2
AWDR	≤ 0.2
CKSN	≤ 0.2
VWDR	≤ 0.2
AQMI	≤ 0.2
PVMW	≤ 0.2
AGCY	≤ 0.2
ASTI	≤ 0.2
RHTP	≤ 0.2
WCIR	≤ 0.2
TPRE	≤ 0.2
HIWS	≤ 0.2
KLSA	≤ 0.2
RQKD	≤ 0.2
PPKI	≤ 0.2
MRTG	≤ 0.2
KQRK	≤ 0.2
QDAW	≤ 0.2
ACYF	≤ 0.2
VVQA	≤ 0.2
QKDR	0.425
RNDM	≤ 0.2
HASV	≤ 0.2
CSTW	≤ 0.2
WDTT	≤ 0.2

Variant	one-hybrid fitness for binding NBS DNA
MAMS	≤ 0.2
YNTI	≤ 0.2
FMPF	≤ 0.2
RIMV	≤ 0.2
PMRM	≤ 0.2
RMLE	≤ 0.2
YNKR	≤ 0.2
ASYS	≤ 0.2
RMYF	≤ 0.2
TVDT	≤ 0.2
YGVG	≤ 0.2
WTDS	≤ 0.2
RIEW	≤ 0.2
RSQY	≤ 0.2
QQYF	≤ 0.2
HLIW	≤ 0.2
LKQT	≤ 0.2
SERF	≤ 0.2
VYLS	≤ 0.2
IPMR	≤ 0.2
HGLC	≤ 0.2
KADL	≤ 0.2
QKMA	≤ 0.2
KRTH	0.245
CYEL	≤ 0.2

Variant	one-hybrid fitness for binding NBS DNA
TPAA	≤ 0.2
YLHT	≤ 0.2
NELA	≤ 0.2
PIVH	≤ 0.2
CPNR	≤ 0.2
SWTR	≤ 0.2
CKKG	≤ 0.2
RRKY	0.79
RQER	0.204
WQEG	≤ 0.2
QRFM	0.22
CTSV	≤ 0.2
INDT	≤ 0.2
RNYI	≤ 0.2
NNLY	≤ 0.2
YDNW	≤ 0.2
HRVW	≤ 0.2
TFET	≤ 0.2
PSYA	≤ 0.2
GEET	≤ 0.2
